Results as given in the supplement of paper PMC12423691.
The other results are listed elsewhere or left out. Binding of human transcription factors and regulators to the viral nucleoprotein by AlphaScreen, crude cell-free proteins, amounts not normalised, one pass. Fold of the Venus control; higher = more signal. No active / inactive call. Single-pass screen; sequences are the whole Swiss-Prot entries looked up by name.

B1: DMRTA1, Q5VZB9 (protein)
chain: MERSQCGSRDRGVSGRPHLAPGLVVAAPPPPSPALPVPSGMQVPPAFLRPPSLFLRAAAAAAAAAAATSGSGGCPPAPGLESGVGAVGCGYPRTPKCARCRNHGVVSALKGHKRFCRWRDCACAKCTLIAERQRVMAAQVALRRQQAQEESEARGLQRLLCSGLSWPPGGRASGGGGRAENPQSTGGPAAGAALGLGALRQASGSATPAFEVFQQDYPEEKQEQKESKCESCQNGQEELISKSHQLYLGSSSRSNGVIGKQSIGSSISEYSNKPDSILSPHPGEQSGGEESPRSLSSSDLESGNESEWVKDLTATKASLPTVSSRPRDPLDILTKIFPNYRRSRLEGILRFCKGDVVQAIEQVLNGKEHKPDNRNLANSEELENTAFQRASSFSLAGIGFGTLGNKSAFSPLQTTSASYGGDSSLYGVNPRVGISPLRLAYSSAGRGLSGFMSPYLTPGLVPTLPFRPALDYAFSGMIRDSSYLSSKDSITCGRLYFRPNQDNP
B2: NR2F2, P24468 (protein)
chain: MAMVVSTWRDPQDEVPGSQGSQASQAPPVPGPPPGAPHTPQTPGQGGPASTPAQTAAGGQGGPGGPGSDKQQQQQHIECVVCGDKSSGKHYGQFTCEGCKSFFKRSVRRNLSYTCRANRNCPIDQHHRNQCQYCRLKKCLKVGMRREAVQRGRMPPTQPTHGQFALTNGDPLNCHSYLSGYISLLLRAEPYPTSRFGSQCMQPNNIMGIENICELAARMLFSAVEWARNIPFFPDLQITDQVALLRLTWSELFVLNAAQCSMPLHVAPLLAAAGLHASPMSADRVVAFMDHIRIFQEQVEKLKALHVDSAEYSCLKAIVLFTSDACGLSDVAHVESLQEKSQCALEEYVRSQYPNQPTRFGKLLLRLPSLRTVSSSVIEQLFFVRLVGKTPIETLIRDMLLSGSSFNWPYMAIQ
B3: ZNF334, Q9HCZ1 (protein)
chain: MKMKKFQIPVSFQDLTVNFTQEEWQQLDPAQRLLYRDVMLENYSNLVSVGYHVSKPDVIFKLEQGEEPWIVEEFSNQNYPDIDDALEKNKEIQDKHLTQTVFFSNKTLITERENVFGKTLNLGMNSVPSRKMPYKCNPGGNSLKTNSEVIVAKKSKENRKIPDGYSGFGKHEKSHLGMKKYRYNPMRKASNQNENLILHQNIQILKQPFDYNKCGKTFFKRAILITQKGRQTERKPNECNECRKTFSKRSTLIVHQRIHTGEKPYVCSDCRKTFRVKTSLTRHRRIHTGERPYECSECRKTFIDKSALIVHQKIHGGEKSYECNECGKTFFRKSALAEHFRSHTGEKPYECKECGNAFSKKSYLVVHQRTHRGEKPNECKECGKTFFCQSALTAHQRIHTGEKPYECSECEKTFFCQSALNVHRRSHTGEKPYECSQCGKFLCTKSALIAHQITHRGKKSYECNECGKFFCHKSTLTIHQRTHTGEKHGVFNKCGRISIVKSNCSQCKRMNTKENLYECSEHGHAVSKNSHLIVHQRTIWERPYECNECGRTYCRKSALTHHQRTHTGQRPYECNECGKTFCQKFSFVEHQRTHTGEKPYECNECGKSFCHKSAFRVHRRIHTGEKPYECNQCGKTYRRLWTLTEHQKIHTGEKPYECNKCEKTFRHKSNFLLHQKSHKE
B4: NDN, Q99608 (protein)
chain: MSEQSKDLSDPNFAAEAPNSEVHSSPGVSEGVPPSATLAEPQSPPLGPTAAPQAAPPPQAPNDEGDPKALQQAAEEGRAHQAPSAAQPGPAPPAPAQLVQKAHELMWYVLVKDQKKMIIWFPDMVKDVIGSYKKWCRSILRRTSLILARVFGLHLRLTSLHTMEFALVKALEPEELDRVALSNRMPMTGLLLMILSLIYVKGRGARESAVWNVLRILGLRPWKKHSTFGDVRKLITEEFVQMNYLKYQRVPYVEPPEYEFFWGSRASREITKMQIMEFLARVFKKDPQAWPSRYREALEEARALREANPTAHYPRSSVSED
B5: RHOXF1, Q8NHV9 (protein)
chain: MARSLVHDTVFYCLSVYQVKISPTPQLGAASSAEGHVGQGAPGLMGNMNPEGGVNHENGMNRDGGMIPEGGGGNQEPRQQPQPPPEEPAQAAMEGPQPENMQPRTRRTKFTLLQVEELESVFRHTQYPDVPTRRELAENLGVTEDKVRVWFKNKRARCRRHQRELMLANELRADPDDCVYIVVD
B6: ATF4, P18848 (protein)
chain: MTEMSFLSSEVLVGDLMSPFDQSGLGAEESLGLLDDYLEVAKHFKPHGFSSDKAKAGSSEWLAVDGLVSPSNNSKEDAFSGTDWMLEKMDLKEFDLDALLGIDDLETMPDDLLTTLDDTCDLFAPLVQETNKQPPQTVNPIGHLPESLTKPDQVAPFTFLQPLPLSPGVLSSTPDHSFSLELGSEVDITEGDRKPDYTAYVAMIPQCIKEEDTPSDNDSGICMSPESYLGSPQHSPSTRGSPNRSLPSPGVLCGSARPKPYDPPGEKMVAAKVKGEKLDKKLKKMEQNKTAATRYRQKKRAEQEALTGECKELEKKNEALKERADSLAKEIQYLKDLIEEVRKARGKKRVP
B7: SLC30A9, Q6PML9 (protein)
chain: MLPGLAAAAAHRCSWSSLCRLRLRCRAAACNPSDRQEWQNLVTFGSFSNMVPCSHPYIGTLSQVKLYSTNVQKEGQGSQTLRVEKVPSFETAEGIGTELKAPLKQEPLQVRVKAVLKKREYGSKYTQNNFITGVRAINEFCLKSSDLEQLRKIRRRSPHEDTESFTVYLRSDVEAKSLEVWGSPEALAREKKLRKEAEIEYRERLFRNQKILREYRDFLGNTKPRSRTASVFFKGPGKVVMVAICINGLNCFFKFLAWIYTGSASMFSEAIHSLSDTCNQGLLALGISKSVQTPDPSHPYGFSNMRYISSLISGVGIFMMGAGLSWYHGVMGLLHPQPIESLLWAYCILAGSLVSEGATLLVAVNELRRNARAKGMSFYKYVMESRDPSTNVILLEDTAAVLGVIIAATCMGLTSITGNPLYDSLGSLGVGTLLGMVSAFLIYTNTEALLGRSIQPEQVQRLTELLENDPSVRAIHDVKATDLGLGKVRFKAEVDFDGRVVTRSYLEKQDFDQMLQEIQEVKTPEELETFMLKHGENIIDTLGAEVDRLEKELKKRNPEVRHVDLEIL
B8: OPRD1, P41143 (protein)
chain: MEPAPSAGAELQPPLFANASDAYPSACPSAGANASGPPGARSASSLALAIAITALYSAVCAVGLLGNVLVMFGIVRYTKMKTATNIYIFNLALADALATSTLPFQSAKYLMETWPFGELLCKAVLSIDYYNMFTSIFTLTMMSVDRYIAVCHPVKALDFRTPAKAKLINICIWVLASGVGVPIMVMAVTRPRDGAVVCMLQFPSPSWYWDTVTKICVFLFAFVVPILIITVCYGLMLLRLRSVRLLSGSKEKDRSLRRITRMVLVVVGAFVVCWAPIHIFVIVWTLVDIDRRDPLVVAALHLCIALGYANSSLNPVLYAFLDENFKRCFRQLCRKPCGRPDPSSFSRAREATARERVTACTPSDGPGGGAAA
B9: MBTPS2, O43462 (protein)
chain: MIPVSLVVVVVGGWTVVYLTDLVLKSSVYFKHSYEDWLENNGLSISPFHIRWQTAVFNRAFYSWGRRKARMLYQWFNFGMVFGVIAMFSSFFLLGKTLMQTLAQMMADSPSSYSSSSSSSSSSSSSSSSSSSSSSSLHNEQVLQVVVPGINLPVNQLTYFFTAVLISGVVHEIGHGIAAIREQVRFNGFGIFLFIIYPGAFVDLFTTHLQLISPVQQLRIFCAGIWHNFVLALLGILALVLLPVILLPFYYTGVGVLITEVAEDSPAIGPRGLFVGDLVTHLQDCPVTNVQDWNECLDTIAYEPQIGYCISASTLQQLSFPVRAYKRLDGSTECCNNHSLTDVCFSYRNNFNKRLHTCLPARKAVEATQVCRTNKDCKKSSSSSFCIIPSLETHTRLIKVKHPPQIDMLYVGHPLHLHYTVSITSFIPRFNFLSIDLPVVVETFVKYLISLSGALAIVNAVPCFALDGQWILNSFLDATLTSVIGDNDVKDLIGFFILLGGSVLLAANVTLGLWMVTAR

Target: nucleoprotein N of Crimean-Congo hemorrhagic fever virus
Test: AlphaScreen luminescence signal relative to Venus negative control (fold); higher = stronger binding to CCHFV N
Protocol: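 AlphaScreen binding of cell-free made, FLAG-GST-tagged human transcription factors and regulators (crude translation products) to biotinylated N protein; signal as fold of the FLAG-GST-Venus control. One pass.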

| Binder | AlphaScreen luminescence signal |
| --- | --- |
| B1 | 2.42 |
| B2 | 2.51 |
| B3 | 3.44 |
| B4 | 7.72 |
| B5 | 7.21 |
| B6 | 2.56 |
| B7 | 2.56 |
| B8 | 2.74 |
| B9 | 2.84 |
